# The list shows a part of the results.
# B1: Cohesin-mDC-ASGPR (Macaca mulatta) (protein)
# chain: LDITSHHHHHHDDLDAVRIKVDTVNAKPGDTVRIPVRFSGIPSKGIANCDFVYSYDPNVLEIIEIEPGDIIVDPNPDKSFDTAVYPDRKIIVFLFAEDSGTGAYAITKDGVFATIVAKVKEGAPNGLSVIKFVEVGGFANNDLVEQKTQFFDGGVNVGDTTEPATPTTPVTTPTTTDDLDAASSQNSKFQRDLVTLRTDFSNFTSNTVAEIQALTSQGSSVEEMIASLKAEVEVIKQEQQAVHSEMLLRVQRLMQDLNKLTCQVATLKNNASTERTCCPVNWVEHQDSCYWFSRSGMPWAEAEKHCQLENAHLVVINSREEQNFVQEHLSFAYTWMGLSDREGAWKWVDGTDYETGFQNWKPGQPDDWQGHGLGGGEDCAHFHPDGRWNDDVCQRPYYWVCEAGLTQASQESH
# Key:
# Assay in all cases: glycan array binding signal (z-score within array); higher = stronger binding
# Conditions in all cases: glycan notation: IUPAC condensed, linker removed
# [1] = target: Gal(b1-4)GlcNAc(b1-2)Man(a1-6)[Man(a1-3)]Man(b1-4)GlcNAc(b1-4)GlcNAc
# In short: (§1)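 Glycan array data were curated from 3228 arrays in the Consortium for Functional Glycomics database and kept only where the protein sequence was available. Glycan names were converted to IUPAC-condensed notation, and columns mapping to the same glycan were averaged. The binding signal is a within-array Z-score, averaged across arrays of the same protein sequence at different concentrations or buffers and across linkers. Negative Z-scores can be read as non-binding.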
# [2] = target: Gal(b1-4)GlcNAc(b1-2)[Gal(b1-4)GlcNAc(b1-4)]Man(a1-3)[Gal(b1-4)GlcNAc(b1-2)Man(a1-6)]Man(b1-4)GlcNAc(b1-4)GlcNAc
# In short: as §1
# [3] = target: Gal(b1-4)GlcNAc(b1-2)[Gal(b1-4)GlcNAc(b1-4)]Man(a1-3)[Gal(b1-4)GlcNAc(b1-2)[Gal(b1-4)GlcNAc(b1-6)]Man(a1-6)]Man(b1-4)GlcNAc(b1-4)GlcNAc
# In short: as §1
# [4] = target: Gal(b1-4)GlcNAc(b1-2)[Gal(b1-4)GlcNAc(b1-4)]Man(a1-3)[GlcNAc(b1-4)][Gal(b1-4)GlcNAc(b1-2)Man(a1-6)]Man(b1-4)GlcNAc(b1-4)GlcNAc
# In short: as §1
# [5] = target: Gal(b1-4)GlcNAc(b1-2)[Gal(b1-4)GlcNAc(b1-4)]Man(a1-3)[GlcNAc(b1-4)][Gal(b1-4)GlcNAc(b1-2)[Gal(b1-4)GlcNAc(b1-6)]Man(a1-6)]Man(b1-4)GlcNAc(b1-4)GlcNAc
# In short: as §1
# [6] = target: Gal(b1-4)GlcNAc(b1-2)[Gal(b1-4)GlcNAc(b1-6)]Man(a1-6)[Gal(b1-4)GlcNAc(b1-2)Man(a1-3)]Man(b1-4)GlcNAc(b1-4)GlcNAc
# In short: as §1
# [7] = target: Gal(b1-4)GlcNAc(b1-2)[Gal(b1-4)GlcNAc(b1-6)]Man(a1-6)[Gal(b1-4)GlcNAc(b1-2)Man(a1-3)]Man(b1-4)GlcNAc(b1-4)[Fuc(a1-6)]GlcNAc
# In short: as §1
# [8] = target: Gal(b1-4)GlcNAc(b1-2)[Gal(b1-4)GlcNAc(b1-6)]Man(a1-6)[GlcNAc(b1-4)][Gal(b1-4)GlcNAc(b1-2)Man(a1-3)]Man(b1-4)GlcNAc(b1-4)GlcNAc
# In short: as §1
# [9] = target: Gal(b1-4)GlcNAc(b1-2)[Gal(b1-4)GlcNAc(b1-6)]Man(a1-6)[GlcNAc(b1-4)][Gal(b1-4)GlcNAc(b1-2)[Gal(b1-4)GlcNAc(b1-4)]Man(a1-3)]Man(b1-4)GlcNAc(b1-4)[Fuc(a1-6)]GlcNAc
# In short: as §1
# [10] = target: Gal(b1-4)GlcNAc(b1-3)Gal(b1-3)GalNAc
# In short: as §1
# [11] = target: Gal(b1-4)GlcNAc(b1-3)Gal(b1-3)GlcNAc
# In short: as §1
# [12] = target: Gal(b1-4)GlcNAc(b1-3)Gal(b1-4)Glc
# In short: as §1
# [13] = target: Gal(b1-4)GlcNAc(b1-3)Gal(b1-4)GlcNAc
# In short: as §1
# [14] = target: Gal(b1-4)GlcNAc(b1-3)Gal(b1-4)GlcNAc(b1-2)Man(a1-3)[Gal(b1-4)GlcNAc(b1-3)Gal(b1-4)GlcNAc(b1-2)Man(a1-6)]Man(b1-4)GlcNAc(b1-4)GlcNAc
# In short: as §1
# [15] = target: Gal(b1-4)GlcNAc(b1-3)Gal(b1-4)GlcNAc(b1-2)Man(a1-3)[Gal(b1-4)GlcNAc(b1-3)Gal(b1-4)GlcNAc(b1-2)Man(a1-6)]Man(b1-4)GlcNAc(b1-4)[Fuc(a1-6)]GlcNAc
# In short: as §1
# [16] = target: Gal(b1-4)GlcNAc(b1-3)Gal(b1-4)GlcNAc(b1-2)[Gal(b1-4)GlcNAc(b1-3)Gal(b1-4)GlcNAc(b1-6)]Man(a1-6)[Gal(b1-4)GlcNAc(b1-3)Gal(b1-4)GlcNAc(b1-2)Man(a1-3)]Man(b1-4)GlcNAc(b1-4)GlcNAc
# In short: as §1
# [17] = target: Gal(b1-4)GlcNAc(b1-3)Gal(b1-4)GlcNAc(b1-2)[Gal(b1-4)GlcNAc(b1-3)Gal(b1-4)GlcNAc(b1-6)]Man(a1-6)[Gal(b1-4)GlcNAc(b1-3)Gal(b1-4)GlcNAc(b1-2)Man(a1-3)]Man(b1-4)GlcNAc(b1-4)[Fuc(a1-6)]GlcNAc
# In short: as §1
# [18] = target: Gal(b1-4)GlcNAc(b1-3)Gal(b1-4)GlcNAc(b1-3)Gal(b1-4)GlcNAc
# In short: as §1
binder,measurement,setting,value
B1,glycan array binding signal (z-score),[1],-0.429
same,glycan array binding signal (z-score),[2],-0.431
same,glycan array binding signal (z-score),[3],-0.427
same,glycan array binding signal (z-score),[4],-0.397
same,glycan array binding signal (z-score),[5],-0.406
same,glycan array binding signal (z-score),[6],-0.394
same,glycan array binding signal (z-score),[7],-0.418
same,glycan array binding signal (z-score),[8],-0.427
same,glycan array binding signal (z-score),[9],-0.411
same,glycan array binding signal (z-score),[10],-0.404
same,glycan array binding signal (z-score),[11],-0.424
same,glycan array binding signal (z-score),[12],-0.394
same,glycan array binding signal (z-score),[13],-0.405
same,glycan array binding signal (z-score),[14],-0.12
same,glycan array binding signal (z-score),[15],-0.328
same,glycan array binding signal (z-score),[16],0.544
same,glycan array binding signal (z-score),[17],-0.266
same,glycan array binding signal (z-score),[18],-0.408
